According to PubChem BioAssay AID493208 (National Center for Advancing Translational Sciences (NCATS), 2011):
Out of some 44,000 compounds screened, about 340 (0.77%) were called active. Another 5% or so got no clear call; they are omitted. Calls follow the shape of the dose curve; as a rule, active = well fitted inhibition curve with a large enough effect; inconclusive = small, poorly fitted or top-dose-only effect; inactive = flat fitted curve, though single readings scatter. This is one part of the list.

Assay: Acumen qHTS Assay for Inhibitors of the mTORC1 Signaling Pathway in MEF (Tsc2-/-, p53-/-) Cells: Sytravon;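 also: plate controls were DMSO for no effect and rapamycin for full effect; nearly all actives have a fitted effect of over 50% in size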
Conditions: phospho-rpS6 immunofluorescence/PI, 24 h; series mostly up to 38.3 µM; activity change, negative = inhibition: at the top concentration
Outline: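 Tsc2-/-, p53-/- MEFs (empty-vector stable line) in DMEM + 10% FBS were treated with compounds 24 h at 37 degree Celsius, fixed, and immunostained for phospho-rpS6 (Alexa-488) with propidium iodide counterstain. Laser-scanning cytometry gave % positive cells, normalized against 7.5 nM rapamycin and DMSO.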

Activity change, negative = inhibition, inactive:
CC1CCN(S(=O)(=O)c2ccc3c(c2)N(CC(=O)N(C)Cc2ccccc2)C(=O)CO3)CC1 1.18%
O=c1c2sc3ccccc3c2n(Cc2cccc(Cl)c2)c(=O)n1Cc1ccc(F)cc1 -3.36%
COc1cccc(CNC(=O)C2CCCN(c3nn4cc(-c5ccc(C)cc5)nc4s3)C2)c1 (centres undefined) -5.37%
Cc1cc(C)c(NC(=O)Cn2nnc3sc4c(c3c2=O)CCC(C(C)(C)C)C4)c(C)c1 (centres undefined) 1.92%
O=C(c1ccc2c(c1)N(Cc1ccccc1)C(=O)c1ccccc1S2(=O)=O)N1CCC(Cc2ccccc2)CC1 -0.015%
COc1cc(C2c3c(-c4ccccc4O)n[nH]c3C(=O)N2Cc2ccncc2)cc(OC)c1OC (centres undefined) 1.73%
COc1ccc(CNC(=O)C2CCN(C(=O)N3CCOc4ccc(C)cc43)CC2)cc1 -1.61%
CC1CCCN(C(=O)c2ccc(CSc3nc4ccncc4n3Cc3ccccc3)cc2)C1 (centres undefined) -0.889%
O=C(NCc1ccc(Cl)cc1)c1cc2cccc3c2n1CCS3 0.53%
CCc1cc(C(=O)N2CCN(c3ccccc3)CC2)no1 -0.0697%
COc1ccccc1N1CCN(c2c3c(nc4nncn24)CCC3)CC1 -2.28%
CC(C)(C)NC(=O)Cn1cc(S(=O)(=O)Cc2ccccc2Cl)c2ccccc21 1.41%
Cc1cccc(-n2c(=O)c3c(c4cc(C)ccc4n3C)n(CC(=O)Nc3ccc(C)c(C)c3)c2=O)c1 -0.68%
COC(=O)c1sccc1S(=O)(=O)N(CC(=O)NCc1ccc(F)cc1)c1ccccc1 -1.11%
Cc1cccc(NC(=O)Cn2c(=O)n(Cc3nc(-c4ccccc4)no3)c(=O)c3ccccc32)c1 -1.37%
CCOC(=O)Cn1c(=N)n(CCOc2ccc(OC)cc2)c2ccccc21 3.05%
COc1ccc(-c2nc(SCC(=O)NCC3CCCO3)c(-c3ccc(C)cc3)[nH]2)cc1OC (centres undefined) 9.02%
COc1ccc(NC(=O)N2CCN(Cc3nc4ccc(C)cc4o3)CC2)cc1OC 0%
CCCCNC(=O)CN1CCN(c2ccc(NC(=O)c3ccc(OC)cc3)cc2C(=O)O)CC1 -0.225%
Cc1ccc(N(C)S(=O)(=O)c2nnc(NC(=O)c3ccco3)s2)cc1 -2.22%
COc1ccc(-c2c(C#N)c(SCC(=O)Nc3ccc(C)c(C)c3)nc(C)c2C(=O)Nc2ccccc2)cc1OC 8.97%
CCn1cc(C(=O)NCCc2ccc(OC)c(OC)c2)c(=O)c2cc(S(=O)(=O)N3CCOCC3)ccc21 -11.9%
Cc1ccc(C(=O)Nc2nnc(S(=O)(=O)N(C)Cc3ccco3)s2)cc1 -5.49%
Cc1cccc(-n2nnc(-c3nc(-c4ccccc4)no3)c2N)c1C -9.75%
COc1cccc(CNC(=O)c2ccc3c(c2)nc2n3CCOC2)c1OC 3.99%
Cc1ccc(C)c(NC(=O)CN2CCN(C3CCCCC3)C(=O)C2=O)c1 0%
CCc1nc2c(cnn2-c2ccc(C)cc2)c(=O)n1-c1ccc(C)cc1 1.33%
O=C(Nc1cccc(C(F)(F)F)c1)c1cc(-c2ccc(Cl)cc2)on1 -24.7%
COc1ccc(S(=O)(=O)c2c(SC)nn(CC(=O)Nc3ccc(C)c(Cl)c3)c2N)cc1 -20.5%
Cc1ccc(-c2noc(C(C)NC(=O)c3ccco3)n2)cc1 (centres undefined) -3.01%
COCCCNC(=O)CSc1nc2cc3c(cc2c(=O)n1CCCCCC(=O)NCCc1ccc(OC)c(OC)c1)OCO3 1.02%
CC(C)(C)C1CCc2nc(NC(=O)COc3ccccc3[N+](=O)[O-])sc2C1 (centres undefined) 0.487%
COc1ccc2c(CNC3CCCC3)c(C(=O)O)n(Cc3ccccc3C)c2c1 -5.25%
CCc1nn2c(=O)cc(COC(=O)c3cccc(NC(=O)c4ccccc4C)c3)nc2s1 10.2%
CC1=C(c2ccc(C)cc2)S(=O)(=O)N(Cc2ccc(C(=O)NCc3ccccc3)cc2)C1=O 0.004%
O=C(NCc1ccc(F)cc1)c1ccc2c(c1)N(Cc1c(F)cccc1Cl)C(=O)CS2 -8.72%
Cc1cc(C)c2c(=O)cc(C(=O)Nc3sc4c(c3C#N)CCCC4)oc2c1 1.87%
Cc1ccccc1NC(=O)CN1C(=O)C2(SCC(=O)N2c2ccc(F)cc2)c2ccccc21 (centres undefined) -5.23%
COc1ccc2c(c1)c(CC(=O)Nc1cccc(F)c1C)c(C)n2C(=O)c1ccc(Cl)cc1 9.78%
COc1cccc(-n2ccn(CC(=O)Nc3ccccc3F)c(=O)c2=O)c1 8.39%
COc1ccc(C2=C(C)C(N3CCC(C(=O)NCc4ccco4)CC3)=NS2(=O)=O)cc1 0%
Cc1ccc(CNS(=O)(=O)c2cc(C(=O)Nc3ccc(C(C)C)cc3)ccc2F)cc1 2.43%
Cc1ccc(CNC(=O)CSCc2nc(-c3ccc(Cl)cc3)oc2C)cc1 1.81%
CCc1ccccc1NC(=O)Cn1cc(C(=O)c2ccc(Cl)cc2)c(=O)c2ccc(C)nc21 2.76%
CCOC(=O)c1[nH]c2ccccc2c1NC(=O)c1cc(OC)cc(OC)c1 -5.74%
COc1cccc(-c2ccnc3c(-c4ccccc4)c(C)nn23)c1 -0.521%
CCOc1ccc(NC(=O)N2CCC(CN3CCC(C)CC3)CC2)cc1 -9.11%
Cc1cccc(N2CCN(C(=O)COCc3cc(-c4ccc5c(c4)OCO5)on3)CC2)c1C -6.3%
COc1ccc(-c2cc(C(=O)NCCc3ccc(Cl)cc3)[nH]n2)cc1 -13.3%
Cc1ccccc1-c1nc2c3c(-c4ccccc4)c(-c4ccccc4)oc3ncn2n1 1.04%
COC(=O)c1ccccc1NC(=O)COCc1cc(-c2cccs2)on1 0.825%
COc1ccc(-c2cc(C(=O)Nc3cccc(C(C)=O)c3)no2)cc1OC 5.25%
CCn1c(=O)n(-c2ccc(F)c(Cl)c2)c(=O)c2sc3ccccc3c21 0.392%
Cc1ccc(CN(C(=O)c2ccc(F)cc2)c2ccccn2)o1 0.344%
O=C(NCc1ccc(F)cc1)C1CCN(S(=O)(=O)c2ccc3c(c2)CCCN3C(=O)C2CCC2)CC1 -3.4%
O=C(COc1ccccc1Cl)N(Cc1ccco1)Cc1ccco1 2.42%
Cc1ccccc1C(=O)Oc1cc(-c2ccc3c(c2)OCO3)cc(=O)c2c(C)oc(C)c12 -7.95%
CN(C)c1ccc(NC(=O)CSc2nc(-c3ccco3)cc(C(F)(F)F)n2)cc1 -12%
O=C(NCc1ccc(F)cc1)c1cnc(N2CCOCC2)c2ccccc12 -6.33%
Cc1cc(C)cc(NC(=O)C2CCCN(c3cnccn3)C2)c1 (centres undefined) -14.2%
Cc1ccc(Cl)cc1NC(=O)c1cc2c(=O)n3cccc(C)c3nc2n1C 3.88%
Cc1ccc(S(=O)(=O)c2cnc(SCC(=O)Nc3ccccc3C(F)(F)F)[nH]c2=O)cc1C -4.44%
CCOc1cc(CNC(=O)c2ccc3c(c2)nc2n3CCCCC2)ccc1OC 0%
Cc1ccc(N2CCN(C(=O)c3ccc(Nc4nc5ccccc5n5nnnc45)cc3)CC2)c(C)c1 2.87%
COc1ccccc1N1CCN(S(=O)(=O)c2c(C)sc3ncn(CC(=O)Nc4ccc(C(C)C)cc4)c(=O)c23)CC1 -2.02%
COc1ccc(-n2c(=O)c3c4c(sc3n(CC(=O)N3CCCCC3C)c2=O)CCC4)c(OC)c1 (centres undefined) -2.4%
CC1CCN(CCCNC(=O)CN2C(=O)CSc3ccc(S(=O)(=O)N4CCC(C)CC4)cc32)CC1 -0.439%
O=C(NC1CCCC1)c1cnn(-c2ccc(F)cc2F)c1C1CCNCC1 -12.9%
COc1ccc(Cl)cc1NC(=O)CSc1nc2c([nH]c3ccccc32)c(=O)n1-c1ccccc1 0.354%
Cc1ccc(S(=O)(=O)N2CCN(Cc3ccccc3)CC2)c(C)c1NS(C)(=O)=O -1.46%
CCSc1nnc2c(n1)OC(c1ccc(OC)cc1OC)N(C(C)=O)c1ccccc1-2 (centres undefined) -0.852%
Cc1ccc(C2=NC(c3ccc(F)cc3)=Nc3ccc(C)cc3N2)cc1 5.59%
COc1ccccc1OCCCCn1c(C2CC(=O)N(c3ccccc3Cl)C2)nc2ccccc21 (centres undefined) 7.64%
Cc1ccc(NC(=O)/C(C#N)=C/c2ccccc2Cl)cc1C 1.28%
COc1ccc(CCNC(=O)Cn2c(=O)n(-c3ccc(OC)c(OC)c3)c(=O)c3ccccc32)cc1OC -5.48%
CCN(CC)CCNC(=O)CN1C(=O)c2cccnc2Oc2ccc(C)cc21 0.54%
Cc1ccc(NC(=O)CN2c3ccccc3S(=O)(=O)c3ccccc32)cc1F 11.1%
CN(Cc1ccccc1)Cc1c(O)ccc2c(=O)c(-c3ccccc3)c(C(F)(F)F)oc12 -19.2%
COc1cc(NC(=O)Cn2c(=O)n(CC(=O)NCCc3ccc(OC)c(OC)c3)c(=O)c3sccc32)cc(OC)c1 -19.2%
Cc1nc(-c2ccc(S(=O)(=O)N3CCN(c4cccc(Cl)c4)CC3)cc2)co1 -6.71%
CC(=O)c1cccc(NC(=O)c2sc(-n3nc(C)c(CCC(C)C)c3C)nc2C)c1 -6.35%
CC(=O)Nc1ccc(S(=O)(=O)NCC2CCC(C(=O)NCc3ccccc3Cl)CC2)cc1 (centres undefined) -2.04%
CC(=O)NCCNc1nc2c(-c3cccc(C)c3)nnn2c2ccc(Cl)cc12 -20.6%
CSc1ccc(CNC(=O)Cc2csc3ccccc23)cc1 -6.88%
COc1ccc(-n2nnnc2C2CCN(S(=O)(=O)c3ccc(F)cc3Cl)CC2)cc1 -10.2%
COc1cccc(Nc2sc(C(=O)c3ccc4c(c3)OCO4)c(N)c2S(=O)(=O)c2ccccc2)c1 2.68%
COc1ccc(N2CC(NC(=O)Cc3cccs3)CC2=O)cc1 (centres undefined) 3.67%
Cc1ccc2ncc(S(=O)(=O)c3ccccc3)c(N3CCCCC3C)c2c1 (centres undefined) 3.14%
CCn1c(C)c(C)c2cc(C(=O)NCc3ccc(N(C)C)cc3)ccc21 0%
COc1ccc(CNC(=O)CN(c2cc(C(F)(F)F)ccc2Cl)S(C)(=O)=O)cc1 7.72%
COc1ccc(C2=NC3(CCCCCC3)N(CC(=O)Nc3ccc(C)c(C)c3)C2=O)cc1 1.53%
Cc1ccc(C(=O)c2oc3ccccc3c2NC(=O)c2cc(-c3ccc(Cl)cc3)on2)cc1 -1.36%
COc1ccc(Cl)cc1NC(=O)Cn1ncc2c3ccccc3n(Cc3ccccc3)c2c1=O -0.069%
Cc1ccccc1Nc1sc(C(=O)c2ccc(F)cc2)c(N)c1C(=O)NCCc1ccccc1 -0.397%
